# Assay results taken from PubChem BioAssay AID485364 (National Center for Advancing Translational Sciences (NCATS), 2010).
# In all, about 360,000 compounds went through this assay and about 11,000 (3.1%) were called active. Inconclusive results, whose numbers are uncertain, are shown with a selection of clear calls. Calls follow the shape of the dose curve; as a rule, active = well fitted inhibition curve with a large enough effect; inconclusive = small, poorly fitted or top-dose-only effect; inactive = no such curve, though single readings can be large or run the other way. Potencies of inconclusive entries are left out as doubtful fits.
# Target: Schistosoma mansoni thioredoxin glutathione reductase (TGR) (UniProt Q962Y6)
# Test: qHTS Assay for the Inhibitors of Schistosoma Mansoni Peroxiredoxins; also: nearly all actives have a fitted effect of over 60% in size
# Conditions: purified TGR, DTNB reduction, TNB absorbance 405 nm; series mostly up to 114 µM
# Outline: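 First, TGR (20 nM dispensed) and NADPH were mixed with compound. Second, a 15 min room-temperature incubation followed. Third, further NADPH and then DTNB were added to start the reaction. Finally, TNB absorbance was monitored kinetically.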
# Potency is read from the fitted curve at half-maximal effect; tags tell the direction and shape of the fitted curve.
row,Compound,Potency
1,CCCc1[nH]n(-c2nc3ccccc3s2)c(=O)c1C=NCCN1CCOCC1,"inconclusive [inhibitor, full curve]"
2,O=C1C(=O)N(CCCN2CCOCC2)C(c2ccc([N+](=O)[O-])cc2)/C1=C(\O)c1ccc2c(c1)OCCO2 (configuration not stated),"inconclusive [inhibitor, partial curve]"
3,COc1ccc(NC(=O)c2cc(-c3ccccc3)nc3c2c(C)nn3-c2ccccc2)c(OC)c1,inactive
4,O=C(CNS(=O)(=O)c1ccccc1)NCc1ccco1,"inconclusive [inhibitor, full curve]"
5,CC(=O)N1CCc2cc(C(=O)CN3CCCCC3)ccc21,"inconclusive [inhibitor, partial curve]"
6,Cc1ccc(S(=O)(=O)NCc2ccco2)c(C)c1C,"inconclusive [inhibitor, partial curve]"
7,O=C(c1ccc2c(c1)OCO2)C1CCCN(C(=O)c2cnn(Cc3ccccc3)c2)C1 (configuration not stated),inactive
8,O=C(NCC(c1ccco1)N1CCOCC1)c1ccc([N+](=O)[O-])cc1 (configuration not stated),active: 3.98 µM
9,Cc1ccc(N(C)/N=C/c2ccc(Cl)cc2Cl)nn1,inactive
10,COc1cccc2sc(N3CCN(C(=O)c4ccc([N+](=O)[O-])o4)CC3)nc12,"inconclusive [inhibitor, partial curve]"
11,COc1ccc(C(=O)C2CCCN(C(=O)c3ccnn3C)C2)cc1OC (configuration not stated),inactive
12,COc1cc(OC)c(NC2=CC(=O)C(=O)c3ccccc32)cc1Cl,"inconclusive [inhibitor, partial curve]"
13,O=C(N/N=C/c1coc2ccccc2c1=O)c1ccccc1,"inconclusive [inhibitor, partial curve]"
14,Cc1cccc(CNC(=O)c2ccc(-c3nc(CS(=O)(=O)c4ccccc4)c(C)o3)cc2)c1,"inconclusive [inhibitor, partial curve]"
15,O=C(CC1Nc2ccccc2NC1=O)Nc1ccccc1 (configuration not stated),"inconclusive [inhibitor, partial curve]"
16,OCc1ccnc2c(O)cccc12,active: 14.1 µM
17,COc1ccc(S(=O)(=O)N(CC(=O)NC2CC3CCC2C3)c2ccccc2OC)cc1 (configuration not stated),inactive
18,COc1cc(-c2noc(C)c2/C=C/c2ccc(C(=O)O)cc2)cc(OC)c1OC,"inconclusive [inhibitor, partial curve]"
19,COc1ccc(OCCC(=O)N2CCOCC2)cc1,inactive
20,COc1ccccc1N1CCN(Cc2ccc(-c3ccccc3[N+](=O)[O-])o2)CC1,active: 25.1 µM
21,O=C(O)CCn1cc(C=C2C(=O)NC(=S)NC2=O)c(-c2cc3ccccc3oc2=O)n1,active: 10 µM
22,COC(=O)c1ccc(S(=O)(=O)NCc2ccco2)n1C,active: 35.5 µM
23,Cc1cc(C)n2c(nc3ccccc32)c1C(=O)NN,inactive
24,Cc1cc(C)cc(N2C(=O)CS(=O)(=O)C23C(=O)N(Cc2ccc(F)cc2)c2ccc(C)cc23)c1 (configuration not stated),inactive
25,Cc1ccc(C)n1C(CC(=O)O)c1ccc(C#N)cc1 (configuration not stated),active: 39.8 µM
26,Cc1oc2c(c1C(=O)c1ccc(Cl)cc1)C(=O)C(=O)c1ccccc1-2,"inconclusive [inhibitor, partial curve, poor fit]"

row,Compound,Potency
1,Cc1cc(N2C(=O)C3CC=CC(C)C3C2=O)no1 (configuration not stated),"inconclusive [inhibitor, partial curve]"
2,S=C(NCc1ccccc1)NNc1ccccc1,"inconclusive [inhibitor, full curve]"
3,COC(=O)c1ccc(COC(=O)c2ccccn2)cc1,inactive
4,O=C(/C=C\c1ccco1)Nc1nc(-c2ccccc2)cs1,"inconclusive [inhibitor, partial curve]"
5,CN(C)S(=O)(=O)c1ccc(N2CCCC2)c(C(=O)Nc2nc3ccccc3s2)c1,inactive
6,O=C(C(Sc1ccccc1)c1ccccc1)N1CCN(c2ccccc2)CC1 (configuration not stated),inactive
7,OCCOCCn1c(-c2ccccc2)nc(=S)c2c1CCCC2,"inconclusive [inhibitor, partial curve]"
8,C=C(C)CNC(=S)Nc1cccc(S(=O)(=O)NC2=NCCC2)c1,active: 56.2 µM
9,C=CCNC(=S)Nc1cc(Cl)ccc1OC,"inconclusive [inhibitor, partial curve]"
10,O=C(CSc1nnnn1-c1ccccc1)c1ccco1,"inconclusive [inhibitor, partial curve]"
11,CC(C)CCn1cnc2c(oc3nc4c(cc32)CCCC4)c1=O,inactive
12,COc1ccc(NC(=O)c2ccc(C)cc2)cc1,inactive
13,CCN1CCCC1CNC(=O)c1ccccc1Cl (configuration not stated),inactive
14,N=c1n(Cc2ccccc2)c2ccccc2n1CC(O)c1ccccc1 (configuration not stated),inactive
15,COC(=O)c1cc(NC(=O)CCS(=O)(=O)c2cc(Br)cc3c2N(C(=O)C2CC2)CC3)cc(C(=O)OC)c1,inactive
16,O=C(O)CCC(=O)N1CCN(c2ccccn2)CC1,"inconclusive [inhibitor, full curve, poor fit]"
17,COc1cccc(C2C([N+](=O)[O-])=C(N)Oc3c2c(=O)oc2ccccc32)c1 (configuration not stated),"inconclusive [inhibitor, partial curve]"
18,Cc1nc(-c2ccc(-n3nncc3-c3ccco3)cc2)cs1,active: 50.1 µM
19,Cc1occc1C(=O)N1CCCC(CCC(=O)NCc2ccc(F)c(F)c2)C1 (configuration not stated),"inconclusive [inhibitor, partial curve]"
20,Cc1ccc(O)c(NC(=O)/C=C/C(=O)O)c1,"inconclusive [inhibitor, partial curve]"
21,CCOC(=O)C1=C(c2ccccc2)N=c2s/c(=C\c3ccco3)c(=O)n2C1c1cccs1 (configuration not stated),"inconclusive [inhibitor, partial curve]"
22,CN1C[C@@H]2C(c3ccc(Cl)nc3)C3(c4ccccc4)CC2(C3)[C@H]1c1ccccc1 (some centres not stated),"inconclusive [inhibitor, partial curve]"
23,O=c1c(C(c2ccc(O)cc2)c2c(O)nc3n(c2=O)CCCS3)c(O)nc2n1CCCS2,active: 56.2 µM
24,O=C(Nc1ccccc1)c1ccc2nc(-c3ccco3)c(-c3ccco3)nc2c1,active: 3.16 µM
25,COc1cc(O)cc(O)c1C(=O)/C=C/c1ccccc1,"inconclusive [inhibitor, partial curve]"
26,CCOc1cc(C2/C(=C(\O)c3cc(C)ccc3C)C(=O)C(=O)N2CCN(C)C)ccc1O (configuration not stated),"inconclusive [inhibitor, partial curve]"

row,Compound,Potency
1,CCn1c(C)cs/c1=N\C(=S)Nc1ccccc1C,inactive
2,COc1ccc(NC(=O)c2ccco2)c([N+](=O)[O-])c1,inactive
3,O=c1[nH]c(=O)n(Cc2ccco2)c(O)c1C=NCc1cccs1,"inconclusive [inhibitor, partial curve]"
4,O=C(NC(=S)Nc1ccc(CN2CCOCC2)cc1)c1cccc([N+](=O)[O-])c1,active: 89.1 µM
5,CC(=O)c1ccc(NC(=O)c2cccc(NC(=O)N3CCSc4ncccc43)c2)cc1,inactive
6,Cc1ccc(CNC(=O)CN(Cc2cccs2)C(=O)C2(C)CC(=O)N=C3C=CC=CN32)cc1 (configuration not stated),inactive
7,CCN1CCOC(=O)C1CC(=O)Nc1ccccc1C(F)(F)F (configuration not stated),active: 10 µM
8,Cc1ccc(/C=C/C(=O)NC2CCS(=O)(=O)C2)cc1 (configuration not stated),"inconclusive [inhibitor, single point]"
9,O=C(/C=C/c1cccc(O)c1)c1ccc(N2CCOCC2)cc1,"inconclusive [inhibitor, partial curve]"
10,CCOc1ccc(C(=O)CCN2CCCCCC2)cc1,active: 0.316 µM
11,Cc1[nH]n(CCC#N)c(=O)c1CC(=O)N1CCN(c2ccccc2)CC1,"inconclusive [inhibitor, partial curve]"
12,O=C(NNc1cc(Br)c(O)c(Br)c1)c1ccccc1,active: 17.8 µM
13,Cc1ccc(NC(=O)c2cncc(Br)c2)c([N+](=O)[O-])c1,inactive
14,O=C(Nc1nccs1)c1cccnc1Cl,inactive
15,CCOc1ccc(Br)cc1S(=O)(=O)Nc1ccccc1N1CCOCC1,inactive
16,O=C(NNC(=O)c1cccnc1)Nc1cccc(Cl)c1Cl,inactive
17,Cc1c(C(=O)N2CCc3ccccc32)oc2c1C(=O)CC(C)(C)C2,"inconclusive [inhibitor, full curve, poor fit]"
18,O=C(CSc1nnc(-c2cccnc2)n1Cc1ccco1)c1ccc(Cl)cc1,"inconclusive [inhibitor, partial curve]"
19,CC1CCN(CCCOc2ccc(Cl)cc2Br)CC1,"inconclusive [inhibitor, single point]"
20,O=C(OCC(=O)N1CCOCC1)c1ccc2[nH]c3c(c2c1)CCCC3,inactive
21,Cc1cccc(NC(=S)NC(=O)c2ccco2)c1C,"inconclusive [inhibitor, single point]"
22,CCOc1ccc(Nc2ncnc3ccc([N+](=O)[O-])cc23)cc1,"inconclusive [inhibitor, single point]"
23,Cc1oc2cc([N+](=O)[O-])c(O)c([N+](=O)[O-])c2c1C(=O)c1ccc(Cl)cc1,"inconclusive [inhibitor, partial curve]"
24,CCN(CC)C(C)C(=O)Nc1c2c(cc3c1CCC3)CCC2 (configuration not stated),"inconclusive [inhibitor, partial curve]"
25,COc1cccc(-c2nnc(SCC(=O)N(C(C)C)C(C)C)o2)c1,"inconclusive [inhibitor, single point]"
